# Test results as given in the supplement of paper PMC11417369.
# This is one part of the list.
# Test system: PfAP2-HC AP2 domain (GST-tagged)
# Test: gcPBM binding intensity (ln(normalized median fluorescence intensity)); higher = stronger DNA binding
# Summary of the method: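 The highest Masliner-normalised natural-log median intensity across replicate spots of either probe orientation is reported as binding intensity. GST-tagged P. falciparum DNA-binding domains expressed in E. coli were applied for 1 h to an Agilent 4 × 180k array of primer-extended double-stranded 36-bp intergenic genomic probes plus negative controls, and bound protein was detected with Alexa488 anti-GST antibody and scanned at 488 nm.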
row,Sequence,gcPBM binding intensity (ln)
1,TATTATTTTAAAAATGCATGTTCATATGAAATAATA [TGCATGCA_site969],9.53
2,TTCGTTCTTTTATGCACACTCAACATATAAATTAAA [CACACA_site1209],9.84
3,AAGGAGCCTATGAACACACACATGTACATATATTAA [CACACA_site4084],10.1
4,ATACTATTATATATATGTACATATATATGATGCTCT [XGTACX_site1771],9.78
5,AATATATATTTATGTACACACTCCAATACAGATACA [CACACA_site5481],9.91
6,TGTAAAAAATTTAACACACACATATATAAATATGTA [CACACA_site7261],10.2
7,CATATACATACACATACACACATACACCCATACACA [CACACA_site8514],10.2
8,ATATGACGTAGTGGTGTACACACATGGTACCTTTAT [CACACA_site8436],9.99
9,AGTAAATAATTATATACATGCATTTACTAATATTTA [TGCATGCA_site952],9.74
10,ATGTAGAATTGTAAATGTACATGAAACACATATTCA [XGTACX_site3436],9.8
11,CTCACATATATATATAGTACAATTTTTTTTTTTTTT [XGTACX_site5999],9.53
12,TTTTTATGTGTATATTATTACATTTACATCTTTAAC [CACACA_negctrl_site1676],9.77
13,ACAAGACAACAAGGAAGTACTCATAAATATATTTGG [XGTACX_site1423],9.8
14,TGTAAATATAAAAGATAATGATAAAAGGGACATTTT [CACACA_negctrl_site661],9.74
15,AATATATATATGTGTACACATCCAAAATAGGCATAC [CACACA_site5705],9.98
16,ATCTATATTATAATAACACACATATATTATAGTATA [CACACA_site6330],9.7
17,ATATATATATAAATATGTACATATTTATATATGAAT [XGTACX_site3220],9.64
18,AAGAAAAATACTACGTGTACCAAACTTCCTACCAAC [XGTACX_site1426],10.4
19,TATATATATATATTATGTACATATAAATATATTTTT [XGTACX_site1509],9.6
20,TTATTTATTCTATGTGCATGTTATTTTTTTTTTTCG [TGCATGCA_site262],9.73
21,AAAAATAAGATATATACACACATATAAATATAAATA [CACACA_site7396],10.1
22,TTTGTATTAAAAAAAAAAAAAAAAAAAATGAATAAA [TGCATGCA_negctrl_site292],9.16
23,ATAACGGAAAAAAAAAGTACATGATATAAACATGAA [XGTACX_site8428],9.69

row,Sequence,gcPBM binding intensity (ln)
1,TTTTTTTTTTTTTTTTTTTTTTTTCATTTGATATTA [TGCATGCA_negctrl_site112],8.67
2,CTTTAAACCCTGAACACACACAAATACACCCAAAAA [CACACA_site4297],10.6
3,TATATATATATATGTGGTACATAAAATTATTATTTT [XGTACX_site4554],9.9
4,ATAAAATTATCTACATGTACTCATATATATTTGTTT [XGTACX_site5911],10
5,AGAGAGAAAGTTATAACATGCAACAATTTTTAGAAG [TGCATGCA_site1],9.72
6,AAAGGAAAAGTTGACTGTACATAAGTAAAAAATAAT [XGTACX_site788],9.97
7,AAAAAAAAAAAAAACACACAGAAATATATATATATT [CACACA_site832],9.89
8,TTTATACAAATATGTACACACTAAATATATATTATG [CACACA_site4413],9.82
9,ATTCATTCCATACTTTAACACACAAATATATTTAAT [CACACA_site7930],9.83
10,TCATATTTATATAAATGTACTTAATTGGTTTCTTTA [XGTACX_site7848],9.55
11,ATGTTATTAATAATTGCACACATTTTTTTTTTTTTT [CACACA_site3920],9.93
12,AGATTGTAAGTAAACACACACACATATATATGTATA [CACACA_site675],10.4
13,TTTTTGTAACCGATTCTGCACTGAGAAGCACATATA,9.44
14,ATATTATACGCATATGTGCGCATACATTTTTTTGCA [GTGCAC_site9540],9.75
15,TTATTTACAAAACAAATCAAAATATCCAAAAGAATA [CACACA_negctrl_site1789],9.46
16,GAAATTACTTTATAAACACACATTTATTTTATTTTA [CACACA_site7007],9.63
17,GGCATATATATATGCACACATACATATATACATGTG [CACACA_site3859],10.1
18,TACACATACAGACATACACACATACCCATATACTCA [CACACA_site5037],10.4
19,TATATATGGATATATACACACAACGGTTATAAATAT [CACACA_site6655],10.1
20,AAAAAAATAAAATATATATATATATATATATATATA [GTGCAC_negctrl_site706],9.31
21,CTTAAAATATATTTAGTGCATATACTAATATATTAT,9.61
22,TATATATATATATTATGTACATATATAAATTAACAT [XGTACX_site3368],9.64
